Data from article PMC12136788.
This is one part of the list.

T1: UNK ZnF1-3 (human, UniProt Q9C0B0 31-174)
T1 sequence: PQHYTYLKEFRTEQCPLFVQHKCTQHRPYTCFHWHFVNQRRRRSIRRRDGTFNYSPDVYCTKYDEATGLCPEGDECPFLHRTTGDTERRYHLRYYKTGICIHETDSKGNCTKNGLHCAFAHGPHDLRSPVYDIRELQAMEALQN

B1: 14004324_14004444_1713_CDS_ENSMUSG00000024420_ENSMUST00000025288|mouse|control|control (ssRNA)
RNA: GGGAGUUCUACAGUCCGACGAUCGAACGCAUUGCUGUCCUUGGCCGCGGGAUUGGCAAACCCAUGAGAACAUCGGAUGUGCUCCUGAAGGGUGUUGAGGUCAUUGACAACUUCGGAACAGAAGUUGCACUGGUAAACAAUGGCCAACAGAGGAUUGAGCAUCA
B2: chr1:201932794:201932795:+_ENSG00000134375_ENST00000367287|hu_hu|FALSE|FALSE (ssRNA)
RNA: GGGAGUUCUACAGUCCGACGAUCUAAGGCACCACUUGUGAUGGAGUUCCAGGGAUCUUCCUUUCCUCUGACUUGAACCAUACUACAGUCAAUCAUGGAAAACAGCCCUCCCCAAACUGCAAAGCUACCUCCUAACUGUGGAGCCAACAGAGGAUUGAGCAUCA
B3: 192992112_192993039_962_CDS_ENSG00000116750_ENST00000367454|human|control|control (ssRNA)
RNA: GGGAGUUCUACAGUCCGACGAUCUUCUGACUGAAUAGCACUUAACAUACUAUUACCUUGAUCUGUAUCCAUGGGUUCCUCUGCAAGUUGUCUUUGUAACUCUGCUAUCUUCUGCUCAUAUAUCAUUUUUCUGUCAGACACAAUCAACAGAGGAUUGAGCAUCA
B4: 46920667_46922139_661_CDS_ENSMUSG00000021375_ENSMUST00000056978|mouse|control|control (ssRNA)
RNA: GGGAGUUCUACAGUCCGACGAUCCGUUCGAGACUUAUUUCCCUCAGACAUCAGUGACUCAAUGUCCUCAAAGCUGGUGACAGCCAGCUGAGACAGACCAUCGACAUACGGCCCCAGGACCUUAUGCUCUCGGACUUUCAGAGACAACAGAGGAUUGAGCAUCA
B5: chr2:232320318:232320319:-_ENSG00000115053_ENST00000322723|hu_hu|hu_hu_hu_mus_True|78_108 (ssRNA)
RNA: GGGAGUUCUACAGUCCGACGAUCACUGUUGAAGUCUACAAAACCAAACCCUUUGGAGGACCCAGUUUCCCGAUCAGUGACUAUUCUUGCACGAACAGAGCCCUCAAAUGAUUCUUUUAAGGUCUCUUCAGUGGUAUCCUCAGACAACAGAGGAUUGAGCAUCA
B6: chr7:141445308:141445309:+_ENSG00000106028_ENST00000265304|hu_hu|hu_hu_hu_mus_False|8_38 (ssRNA)
RNA: GGGAGUUCUACAGUCCGACGAUCUAUGAUUGUUGUUGCUUGCCGCCUCACAUUGUUUUUAUCCAUGUACUCGCCAUAGUCCACUUUCCCUUCCACAUAAAUUCGAGCCCCCUUUUUCACAUACUGAUAUGCCACGUCUCUGAGCAACAGAGGAUUGAGCAUCA
B7: chr14:89338683:89338684:+_ENSG00000165533_ENST00000346301|hu_hu|hu_hu_hu_mus_False|38_78 (ssRNA)
RNA: GGGAGUUCUACAGUCCGACGAUCGUGGUUGUUGUGGACCAGGGCCAGCCUGAAGCACUGAUGGGCCAAGUUUGUAUCUCCGAUUCCCACAGCUAUGUGUCCCAAGUUGUACCAGACAUCAGCUGCCUCUUCUUCAUUUUCAGCCAACAGAGGAUUGAGCAUCA
B8: chr2:48782664:48782665:-_ENSMUSG00000026761_ENSMUST00000141441|mus_mus|FALSE|FALSE (ssRNA)
RNA: GGGAGUUCUACAGUCCGACGAUCUCACUCUCUUUUCUAAGAGUUCCAAAAUAUCCAAUCUACAUGUAAGUCCAAUAACUGCUACUGGUGUCUGUGCAGAUUGAGAAAUGUCAAAAAGAUUAUAAAGGAGUGUUUGAUUUUUCUCAACAGAGGAUUGAGCAUCA
B9: chr3:122152592:122152593:-_ENSG00000114030_ENST00000344337|hu_mus|FALSE|FALSE (ssRNA)
RNA: GGGAGUUCUACAGUCCGACGAUCAUUUGUGAUGGCCCAAGCAGCUUCCUUCCUUGUCCGGAACUCUGCUGUUUGCAAUAUACUAAUAAGAGCUGGGAACAUGUUAGCAUCUAUCACAGUCUGGAUCUGUGCCCUAUUUCCAGCCAACAGAGGAUUGAGCAUCA
B10: chr8:59488481:59488482:+_ENSG00000137575_ENST00000447182|hu_hu|motif|central (ssRNA)
RNA: GGGAGUUCUACAGUCCGACGAUCUCCAACAUCAUUACCAGUUACAGGAGCCACCAUAUAGUUUAUACUGGAAGGUCUUGCGGCCAACCCCUGAAGUGGUGCACCAGAAACCACGGCCACAUUUGCACGUAUUUCUUCUUCAUUCAACAGAGGAUUGAGCAUCA
B11: chr1:160275524:160275525:-_ENSG00000122218_ENST00000241704|hu_hu|motif|central (ssRNA)
RNA: GGGAGUUCUACAGUCCGACGAUCACAUAAAGCAUCCAGUUUGCGGUUACAGAUCACAAUGGCGUGUUUGGCUAGUAGUGCGGCAUGUGACAUGUCUGCUGACCAGAUAACGUAUUUCACUUUAGAAAUCUUCACAGAUGCCAGCAACAGAGGAUUGAGCAUCA
B12: 94666424_94668101_775_CDS_ENSMUSG00000038902_ENSMUST00000107270|mouse|control|control (ssRNA)
RNA: GGGAGUUCUACAGUCCGACGAUCCACAGGCAUUGUGGAGCCUGGCCUCACGGGGGUCAUCUGAGAGAACACUUGUGGGACGCCAACUGUCGGCUUAACAAACUGUGUACCUGGGGCUGGGACCAAUGUAAUUGGUCUAACUGUCAACAGAGGAUUGAGCAUCA
B13: chr4:95690885:95690886:+_ENSMUSG00000028572_ENSMUST00000156910|mus_mus|mus_mus_mus_hu_False|58_98 (ssRNA)
RNA: GGGAGUUCUACAGUCCGACGAUCUUUAGAAAAUGUUAAUGUUAAAUCUAAAAUAUUUUCAAAGGCUUAUUUUAUUUUACUAAAAGACACAGGCAAGCAGACACUACAAGAAUAUAUGAAAAUGAAACUCAACAAUAUAACUGUCAACAGAGGAUUGAGCAUCA
B14: 77461496_77471655_1232_CDS_ENSG00000132842_ENST00000519295|human|control|control (ssRNA)
RNA: GGGAGUUCUACAGUCCGACGAUCCUUCAGUGUCUUGAUCAUAGUUGGAUCAGUUGACCUAACAUAGAAACUCUUCAGAUAAGGUUCAAACAUCCCCUUUCUUUGAAUUGACAUAGUUGCUAUAUUUUGUAGGACAAUAUACUGCAACAGAGGAUUGAGCAUCA
B15: chr3:148802587:148802588:-_ENSG00000071794_ENST00000310053|hu_mus|hu_hu_hu_mus_False|58_78 (ssRNA)
RNA: GGGAGUUCUACAGUCCGACGAUCUCCAACAACUUGUCCUCUCAUAGUUCCAAAUAAAACGGAAUCUUGCUCUUCAUCACUAGUUAGGAAGUCAUCUGGAGGAAUAAUGUCUUGGAAUUCAAAAUGUGGCAAGAAAGUUGAGUACAACAGAGGAUUGAGCAUCA
B16: 101230996_101231116_1247_3pUTR_ENSMUSG00000042035_ENSMUST00000043983|mouse|control|control (ssRNA)
RNA: GGGAGUUCUACAGUCCGACGAUCGACCUCCACAGGGUUCUCGCCACCCUUCUGCCGCAGCCAGGAUACCGAGAGGUGGGUGUGCUGGACGGUCUCGGUGGCCACUUCGCAGCUGAGCUCCAGGGGAUCCUGUUCCACUUUGUGCAACAGAGGAUUGAGCAUCA
B17: chr2:216981417:216981418:+_ENSG00000079246_ENST00000392132|hu_hu|hu_hu_hu_mus_True|28_38 (ssRNA)
RNA: GGGAGUUCUACAGUCCGACGAUCCUGAUACUGGUCCUUGCCAGCAAGGGCAUUAUCAGUGCCAUCUGUGCCAUAGAGGACUAACGCAAUCUCAUCUUUGUUCUCAGCAAACACCUGUCGUUGGACAAACAUAGUCAUCACUUUCAACAGAGGAUUGAGCAUCA
B18: chrX:69798090:69798091:-_ENSMUSG00000031343_ENSMUST00000055966|mus_mus|mus_mus_mus_hu_False|28_58 (ssRNA)
RNA: GGGAGUUCUACAGUCCGACGAUCAAGUCCCCGGGUUCUUGUCGUCUUGAUUCCCCUUGACCAGUGGUUCCAGGGAGAAUACUAAUCAGGAAAAGAAUCCCAAGGCUGGUCACAUAACAGUGACUUGUUUGUGUGAUUAUCAUCCAACAGAGGAUUGAGCAUCA
B19: chr7:151048522:151048523:+_ENSG00000013374_ENST00000566856|hu_mus|hu_hu_hu_mus_True|28_58 (ssRNA)
RNA: GGGAGUUCUACAGUCCGACGAUCCUGUUUCUUAUUUAUUACGAUCUUGAUGUAAUUUUCUUGAAAUCCGAAAGUUUCAGCUAUUUUACACCUCAGGUCUCUACCAGUGAUGUGCAAGCGGGUCUCCAACAAGCUUUUCUUAUCCAACAGAGGAUUGAGCAUCA
B20: chrX:34632047:34632048:-_ENSMUSG00000036572_ENSMUST00000076265|mus_mus|motif|central (ssRNA)
RNA: GGGAGUUCUACAGUCCGACGAUCGACUAUUUAAAUCUUUUCCAUCAGCCAUAAUUUGCUCUAUCCUCCGCUCUACUUGUGCGGCAAUUACAUGCUCAUUGCUCCUACACUACAGAGUCAACAGUCAACACCAACAAUGCAAAACAACAGAGGAUUGAGCAUCA
B21: chr10:20037848:20037849:+_ENSMUSG00000037608_ENSMUST00000043881|mus_hu|FALSE|FALSE (ssRNA)
RNA: GGGAGUUCUACAGUCCGACGAUCCAAGUGAAGUCUUUGAGAUACUGUAAAAAUUCUUCCUGGAGAGAAUGCUCUGAGAAAUUAAACUCUAAAUUCGAAUUCCUGACACGCCGAAUCGCGGUUCCGGGAAUUUAUCUCCGUUGCCAACAGAGGAUUGAGCAUCA
B22: 11440338_11440458_1189_CDS_ENSMUSG00000040720_ENSMUST00000059914|mouse|control|control (ssRNA)
RNA: GGGAGUUCUACAGUCCGACGAUCCAGUUCAGUUAACUUCACCGAGGCUUCUACUGCCCCUGAAUUCUCUUUAUCUGGACCUUGAUCCUUCAUUCUACUGAUUUCAAUUUCAAAAGUAGUUUUGUAUGGACAGCUGAAAUACAACAACAGAGGAUUGAGCAUCA

Target: T1, UNK ZnF1-3
Test: nsRBNS (natural sequence RNA bind-n-seq); RBNS binding buffer (assumed for nsRBNS): 25 mM Tris pH 7.5, 150 mM KCl, 3 mM MgCl2, 0.01% Triton X-100, 500 ug/ml BSA, 20 U/ml SUPERase-In, 4 C; UNK is unkempt and MSI1 is Musashi-1; names of the RNAs are library labels; protein concentration not given here; high values mean tight binding

Row | Binder | binding signal [enrichment R]
1 | B1 | 1.08
2 | B2 | 1.33
3 | B3 | 0.589
4 | B4 | 0.584
5 | B5 | 0.481
6 | B6 | 0.578
7 | B7 | 0.94
8 | B8 | 0.828
9 | B9 | 0.81
10 | B10 | 1.26
11 | B11 | 0.72
12 | B12 | 1.01
13 | B13 | 2.14
14 | B14 | 0.789
15 | B15 | 1.46
16 | B16 | 0.651
17 | B17 | 0.77
18 | B18 | 0.472
19 | B19 | 0.563
20 | B20 | 1.36
21 | B21 | 1.02
22 | B22 | 0.857
